The values below come from the supplement of paper PMC8007513.

Where a name gives a salt, the structure may show the parent alone. ± gives the standard error. In all, about 1,300 compounds went through this assay and about 75 (6%) showed an effect of 50% or more. This is one part of the list.

The test system of this assay is Trichoderma virens ATCC 9645. Nature of the assay: growth yield (OD600) relative to untreated control; higher = less growth inhibition. To be noted: compound concentration: 100 uM. A digest of the protocol: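 A biocide at 200 ng ml^−1 was co-applied to some wells, and library compounds were present in all test wells at 100 μM final. The wells held 100 μl of Trichoderma virens ATCC 9645 spores at 15,000 spores ml^−1 in potato dextrose broth, grown at 30 °C in 96-well plates, with OD600 read at 40 h and 72 h. Results are relative growth against the control without either agent, averaged across duplicate screens.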

Consider `Cc1oncc1C(=O)Nc1ccc(C(F)(F)F)cc1` [Leflunomide], for which the growth yield reads like this: (40 h) 72.4 ± 11%; (72 h) 94.5 ± 12%.

In turn, `O=C(O)c1cccnc1Nc1cccc(C(F)(F)F)c1` [Niflumic acid] gave a growth yield (40 h) of 71.6 ± 0.79% and a growth yield (72 h) of 81.4 ± 2.3%.

For the compound `CCOC(=O)[C@H](CCc1ccccc1)N[C@@H](C)C(=O)N1Cc2ccccc2C[C@H]1C(=O)O` [Quinapril hydrochloride], the growth yield stood at 98.8 ± 3.8% (40 h) and 98.1 ± 1.1% (72 h).

For `CC1(C)OC(=O)NC1=O` [Dimethadione], the growth yield reads like this: (40 h) 100 ± 1.3%; (72 h) 96.9 ± 1.1%.

With `N=C(N)NCC1COC2(CCCCC2)O1` (stereo unspecified) [Guanadrel sulfate], the growth yield is, setting by setting: (40 h) 102 ± 1.9%; (72 h) 97.43 ± 0.73%.

Turning to `CCC[C@H](N[C@@H](C)C(=O)N1[C@H](C(=O)O)C[C@@H]2CCCC[C@@H]21)C(=O)OCC` [Perindopril], the growth yield came out at 101 ± 3.5% (40 h) and 96.9 ± 2.5% (72 h).

The compound `Nc1ccc(C(=O)NCC(=O)O)cc1` [Aminohippuric acid] had a growth yield (40 h) of 101 ± 5.2% and a growth yield (72 h) of 104 ± 3.6%.

Take `COc1ccc(NS(=O)(=O)c2ccc(N)cc2)nn1` [Sulfamethoxypyridazine]: the growth yield is, setting by setting: (40 h) 103 ± 3.8%; (72 h) 99.2 ± 3.1%.

In the case of `Nc1ccc(S(=O)(=O)c2ccc(N)cc2)cc1` [Dapsone], the growth yield reads like this: (40 h) 106 ± 3.8%; (72 h) 114 ± 2.3%.

`OCCN1CCN(CCCN2c3ccccc3Sc3ccc(Cl)cc32)CC1` [Perphenazine]: the growth yield is, setting by setting: (40 h) 59.1 ± 5.1%; (72 h) 113 ± 14%.

`CN(C)CCc1c[nH]c2ccc(Cn3cncn3)cc12` [Rizatriptan benzoate] had a growth yield (40 h) of 101 ± 2.9% and a growth yield (72 h) of 98.4 ± 2.5%.

With `C=C1C[C@H]2[C@@H]3C=C(C)C4=CC(=O)CC[C@]4(C)[C@H]3CC[C@]2(C)[C@@]1(OC(C)=O)C(C)=O` [Melengestrol acetate], the growth yield turned out to be 96.6 ± 1.6% (40 h) and 94.5 ± 2.4% (72 h).

On to `CC(=O)Oc1cccc2c1C(=O)c1c(OC(C)=O)cc(C(=O)O)cc1C2=O` [Diacerein], for which the growth yield runs as follows: (40 h) 81.48 ± 0.79%; (72 h) 72.58 ± 0.21%.

In the case of `CN1CCCCC1CCN1c2ccccc2Sc2ccc([S+](C)[O-])cc21` (stereo unspecified) [Mesoridazine besylate], the growth yield is, setting by setting: (40 h) 106.3 ± 0.79%; (72 h) 103 ± 1.9%.

`NC(=O)N/N=C/c1ccc([N+](=O)[O-])o1` [Nitrofural]: the growth yield reads like this: (40 h) 95.5 ± 1.8%; (72 h) 97.12 ± 0.84%.

Compound `CCCC(=O)Nc1ncnc2c1ncn2[C@@H]1O[C@@H]2COP(=O)(O)O[C@H]2[C@H]1OC(=O)CCC` [Bucladesine sodium salt] showed a growth yield (40 h) of 97.69 ± 0.79% and a growth yield (72 h) of 97.75 ± 0.42%.

`CN(C)CCC[C@@]1(c2ccc(F)cc2)OCc2cc(C#N)ccc21` [Escitalopram oxalate] had a growth yield (40 h) of 102 ± 4.3% and a growth yield (72 h) of 103 ± 3.5%.

As for `CN1CCCC(n2nc(Cc3ccc(Cl)cc3)c3ccccc3c2=O)CC1` (stereo unspecified) [Azelastine hydrochloride], the growth yield came to 111 ± 5.2% (40 h) and 116 ± 4.9% (72 h).

As to `CCN1CCN(C(=O)N[C@@H](C(=O)N[C@@H]2C(=O)N3[C@@H]2SC(C)(C)[C@@H]3C(=O)O)c2ccccc2)C(=O)C1=O` [Piperacillin sodium salt], the growth yield was 107 ± 2.5% (40 h) and 102 ± 1.1% (72 h).

As for `CO[C@@H]1[C@@H](OC(N)=O)[C@@H](O)[C@H](Oc2ccc3c(O)c(NC(=O)c4ccc(O)c(CC=C(C)C)c4)c(=O)oc3c2C)OC1(C)C` [Novobiocin sodium salt], the growth yield (40 h) is 92 ± 1.8% and the growth yield (72 h) was 115 ± 4.7%.

For the compound `CN1C2CCCC1CC(NC(=O)c1nn(C)c3ccccc13)C2` (stereo unspecified) [Granisetron], the growth yield is 105.6 ± 0.48% (40 h) and 100.8 ± 0.94% (72 h).

With `CC(C)N1CCN(c2ccc(OCC3COC(Cn4cncn4)(c4ccc(Cl)cc4Cl)O3)cc2)CC1` (stereo unspecified) [Terconazole], the growth yield is, setting by setting: (40 h) 82.44 ± 0.16%; (72 h) 88.4 ± 1.1%.

Turning to `O=C(NCCNCC(O)COc1ccc(O)cc1)N1CCOCC1` (stereo unspecified) [Xamoterol hemifumarate], the growth yield by setting is: (40 h) 95.3 ± 4.1%; (72 h) 94.8 ± 1.7%.

`CN(C)CCOC1=Cc2ccccc2Sc2ccc(Cl)cc21` [Zotepine] registered a growth yield (40 h) of 89.7 ± 14% and a growth yield (72 h) of 114 ± 11%.

`CCN(Cc1ccncc1)C(=O)C(CO)c1ccccc1` (stereo unspecified) [Tropicamide]: the growth yield reads like this: (40 h) 99.6 ± 1.8%; (72 h) 102 ± 1.1%.

For `OC(CCN1CCCCC1)(c1ccccc1)C1CC2C=CC1C2` (stereo unspecified) [Biperiden hydrochloride], the growth yield runs as follows: (40 h) 104 ± 2.9%; (72 h) 105 ± 1.9%.

As to `Cc1ncc([N+](=O)[O-])n1CCO` [Metronidazole], the growth yield reads like this: (40 h) 101 ± 2.5%; (72 h) 98.6 ± 2.5%.

Regarding `CCN(CC)CC#CCOC(=O)C(O)(c1ccccc1)C1CCCCC1` (stereo unspecified) [Oxybutynin chloride], the growth yield reads like this: (40 h) 95.94 ± 0.32%; (72 h) 99.84 ± 0.84%.

Regarding `COc1ccc(C(=O)NCc2cccnc2)cc1C(=O)NCc1cccnc1` [Picotamide monohydrate], the growth yield is, setting by setting: (40 h) 104 ± 1.8%; (72 h) 105 ± 2.3%.

Take `Cc1ccc(C(=O)c2cc(O)c(O)c([N+](=O)[O-])c2)cc1` [Tolcapone]: the growth yield runs as follows: (40 h) 51.3 ± 8.1%; (72 h) 58.8 ± 11%.

As to `NC[C@H]1O[C@H](O[C@H]2[C@H](O[C@@H]3O[C@H](CO)[C@@H](O)[C@H]3O)[C@@H](O)[C@H](N)C[C@@H]2N)[C@H](N)[C@@H](O)[C@@H]1O` [Ribostamycin sulfate salt], the growth yield reads like this: (40 h) 106 ± 2.1%; (72 h) 99.2 ± 1.9%.

Turning to `COc1ccc2[nH]cc(CCNC(C)=O)c2c1` [Melatonin], the growth yield runs as follows: (40 h) 101%; (72 h) 97.3%.

Consider `CCn1cc(C(=O)O)c(=O)c2cnc(N3CCNCC3)nc21` [Pipemidic acid], for which the growth yield stood at 94.4 ± 3.5% (40 h) and 92.7% (72 h).
